# Results reported in PubChem BioAssay AID1454 (National Center for Advancing Translational Sciences (NCATS), 2008).
# The whole screen tested about 130,000 compounds, of which about 550 (0.42%) were called active. This list was built around the results that the source calls inconclusive (neither active nor inactive); the mix of calls is not that of the screen. The call rests on the fitted dose curve; in most records, active means well fitted inhibition curve with a large enough effect; inconclusive means small, poorly fitted or top-dose-only effect, or effect the other way; inactive means flat fitted curve, though single readings scatter. No potency is given beside an inconclusive call; the fits are too rough.
# Assay: qHTS Assay for Inhibitors of the ERK Signaling Pathway using a Homogeneous Screening Assay; Stimulation with EGF; further: nearly all actives have a fitted effect of over 55% in size
# Conditions: HEK293-V1b, EGF-stimulated phospho-ERK AlphaScreen
# Summary of the method: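 Homogeneous cell-based phospho-ERK assay: HEK293/V1b cells in 1% FBS, compound 30 min then EGF 5 min, AlphaScreen luminescence. Activity normalized between DMSO and 25 nM EGF controls; AC50 from Hill modelling.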
# Potency means the concentration at half of the fitted maximal effect; tags describe the fitted curve by direction and shape.
row,Compound,Potency
1,Cn1c(=O)c2c(ncn2Cc2ccc(Cl)cc2)n(C)c1=O,"inconclusive [inhibitor, partial curve, poor fit]"
2,CCOC(=O)c1sc(=S)n(Cc2ccccc2)c1C,"inconclusive [inhibitor, single point]"
3,CN(C)S(=O)(=O)N1CCN(c2ccc([N+](=O)[O-])c(N3CCCCC3)c2)CC1,"inconclusive [inhibitor, single point]"
4,O=C(N/N=C/c1ccccn1)c1[nH]c2ccc([N+](=O)[O-])cc2c1-c1ccccc1,"inconclusive [inhibitor, partial curve, poor fit]"
5,C=CC[C@@](C(C)=O)(C(=O)OC)C(NC(=O)OC(C)(C)C)c1ccccc1 (some centres not stated),inactive
6,COc1cc(O)c(C(CC(=O)N2CCN(c3ccccc3)CC2)c2ccc(N(C)C)cc2)c(OC)c1 (configuration not stated),"inconclusive [inhibitor, partial curve]"
7,Cc1cc(C)n(-c2nc3ccccc3s2)n1,"inconclusive [activator, partial curve, poor fit]"
8,Clc1ccc(-c2nnc(SCc3nc4ccccc4[nH]3)o2)c(Cl)c1,"inconclusive [inhibitor, single point]"
9,Cc1nc(=S)c2c([nH]1)-c1ccccc1CC21CCCCC1,"inconclusive [inhibitor, single point]"
10,O=C1NC(=Nc2ccc(O)cc2)S/C1=C/c1ccco1,"inconclusive [inhibitor, single point]"
11,O=[N+]([O-])c1ccc(N2CCN(S(=O)(=O)c3ccc(Cl)c(Cl)c3)CC2)cc1NCCN1CCOCC1,"inconclusive [inhibitor, partial curve, poor fit]"
12,Cc1[nH]n(-c2ncc(-c3ccccc3)s2)c(=O)c1C(c1ccc(Br)cc1)C(C#N)C#N (configuration not stated),"inconclusive [inhibitor, single point]"
13,COc1ccc2c(c1)C(C)=CC(C)(C)N2C(=O)Nc1ccccc1,"inconclusive [inhibitor, single point]"
14,N#C/C(=C\c1ccc(O)c([N+](=O)[O-])c1)c1nc2ccccc2s1,"inconclusive [inhibitor, single point]"
15,O=C(CCCOc1ccc(Cl)cc1)Nc1ccc(N2CCOCC2)cc1,"inconclusive [activator, full curve, poor fit]"
16,CC(=O)c1cc2c(cc1O)OC(C)(C)C=C2,inactive
17,CCN(CC)c1ccc(/C=C/C(=O)c2cccnc2)cc1,"inconclusive [inhibitor, single point]"
